Data reported in the supplement of paper PMC3334620.
In all, about 33,000 sequences were measured (“E-score (-0.5 to 0.5)”: median about -0.011, highest 2% from about 0.28 on). The list shows a part of the results.

Each sequence was assayed against T1, Gcr1 (UniProt P07261) (assay: PBM E-score (8-mer binding enrichment) (E-score (-0.5 to 0.5)); higher = stronger / more preferred TF binding; most listed sequences are background and not binding sites). Details: protein concentration: 100 nM; construct: GST-full length.
T1 sequence: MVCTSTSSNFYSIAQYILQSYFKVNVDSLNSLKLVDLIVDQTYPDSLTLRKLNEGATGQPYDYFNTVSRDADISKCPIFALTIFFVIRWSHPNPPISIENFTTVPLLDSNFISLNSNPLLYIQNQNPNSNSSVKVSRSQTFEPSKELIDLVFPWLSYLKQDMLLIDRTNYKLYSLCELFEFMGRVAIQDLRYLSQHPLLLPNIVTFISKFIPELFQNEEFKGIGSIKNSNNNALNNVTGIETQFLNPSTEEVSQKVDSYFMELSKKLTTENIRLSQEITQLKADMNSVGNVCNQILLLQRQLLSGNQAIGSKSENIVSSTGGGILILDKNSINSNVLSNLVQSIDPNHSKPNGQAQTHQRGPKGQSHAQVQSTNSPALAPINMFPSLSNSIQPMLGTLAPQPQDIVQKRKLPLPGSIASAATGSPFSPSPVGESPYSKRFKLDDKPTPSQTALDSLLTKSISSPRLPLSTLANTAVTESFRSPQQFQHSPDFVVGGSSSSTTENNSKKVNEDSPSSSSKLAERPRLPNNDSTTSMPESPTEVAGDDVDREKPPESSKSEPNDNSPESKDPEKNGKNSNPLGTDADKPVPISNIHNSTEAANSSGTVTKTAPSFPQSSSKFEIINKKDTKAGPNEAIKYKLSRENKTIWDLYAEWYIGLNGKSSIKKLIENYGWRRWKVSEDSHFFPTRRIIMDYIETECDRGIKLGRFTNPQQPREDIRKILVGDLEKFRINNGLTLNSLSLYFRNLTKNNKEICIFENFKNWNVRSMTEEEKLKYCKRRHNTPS
Procedure, shortened: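 GST-tagged yeast TFs (full-length or DNA-binding domain) were made by PURExpress in vitro transcription/translation and applied at about 100-200 nM to universal all-10-mer Agilent arrays. The arrays were made double-stranded by primer extension, on fresh or once-stripped slides. Bound protein was detected with fluorescent anti-GST, and scans were normalised with masliner. Each ungapped eight-base word, pooled with its reverse complement, received an E-score (modified Wilcoxon-Mann-Whitney statistic) from the Universal PBM Analysis Suite.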

Row | Sequence | PBM E-score
1 | GGACAGTA | -0.172
2 | AAATAACT | 0.166
3 | CGACACCG | -0.0892
4 | AGCTATGG | -0.122
5 | CATTAAGG | -0.0672
6 | TGGACGAA | -0.123
7 | ACGCCCGT | 0.0469
8 | CGTTGAGC | -0.289
9 | ATACCATA | 0.0418
10 | CTGGTGCC | 0.352
11 | GGAGTGGA | 0.248
12 | CAACCTAA | 0.172
13 | GAAAGGCA | 0.105
14 | CCCTGGTA | -0.0696
15 | GTCGACGA | -0.144
16 | TACGTCCA | 0.00987
17 | ACGGCGAA | 0.0481
18 | CATGAAAC | -0.0569
19 | ATCTGTAC | 0.0702
20 | AGTGATCG | -0.254
21 | ATGAACGG | -0.199
22 | ACTGTATA | 0.064

Row | Sequence | PBM E-score
23 | CTAGCGTC | 0.238
24 | CTCGGTGA | -0.154
25 | CTGACGTA | 0.0205
26 | CCCTCAAG | -0.0631
27 | AGGATCAC | -0.195
28 | GTATAGAA | -0.00359
29 | CAAAGAAC | 0.00036
30 | CCATCAGA | -0.175
31 | ACCTCAAC | -0.0951
32 | ACGCGATG | -0.0224
33 | CCTTTCAA | 0.00921
34 | CCAGAAGA | 0.187
35 | GCGCAGAC | -0.167
36 | CTCCCGAC | -0.244
37 | AAGGCTTC | 0.0757
38 | ACAGCCCC | -0.169
39 | CACCACAG | 0.0753
40 | CCCTGACC | -0.0975
41 | ACCAAACA | 0.0428
42 | CGACTCTA | 0.0124
43 | CCTACAAG | -0.073
44 | GAGAGATA | 0.0806

Row | Sequence | PBM E-score
45 | ATGATAGA | -0.066
46 | GGGTGAGA | -0.254
47 | CAGAAATG | -0.116
48 | CGGTTCAG | -0.114
49 | CGATTGAA | -0.174
50 | TAGCGCGA | 0.0928
51 | AGGCCACG | -0.25
52 | CTGTTTGC | -0.14
53 | CTACATGA | 0.114
54 | CGATAGTA | -0.0965
55 | ACGGGAAC | -0.0291
56 | ATTGTTCA | -0.0716
57 | GACTTTAC | -0.0926
58 | CTAGGCGA | 0.035
59 | AGCGTTAA | -0.099
60 | ACGTGTTA | -0.0746
61 | AGATAGCA | 0.131
62 | AGAAGGAA | 0.0447
63 | CCTGCTGC | -0.0427
64 | ACTAAGCA | -0.271
65 | AGGTTTCA | 0.149
66 | ACTGAGTG | -0.08

Row | Sequence | PBM E-score
67 | GAAGTGTC | -0.00022
68 | GTTTCGCA | 0.166
69 | CATATACC | -0.121
70 | GGGGCAGA | -0.0148
71 | ACCCGCGT | 0.106
72 | TACTATCA | -0.185
73 | ACGCACCA | -0.0574
74 | AATCACTC | 0.0506
75 | CATTCTAA | 0.108
76 | ATCAGAGA | -0.0461
77 | AAAACAGA | 0.0751
78 | CGCTCGCA | 0.128
79 | CTTGATAA | -0.128
80 | GTCAGCAC | 0.0132
81 | GCCACGAA | -0.0525
82 | ATACTTTC | 0.0097
83 | ACTCTGTC | -0.11
84 | CCCGAGTA | 0.117
85 | CCCCAAAC | 0.0601
86 | ACTCGAAG | 0.0605
